Measured values as given in PubChem BioAssay AID2675 (National Center for Advancing Translational Sciences (NCATS), 2010).
The campaign covered roughly 280,000 compounds. About 100 (0.036%) were called active. The shares of active, inactive and inconclusive entries below differ from those in the screen. Calls come from the whole dose curve; as a rule, active = well fitted inhibition curve with a large enough effect in the signal ratio, with a control signal flat (not every such curve was filed as active); inconclusive = small, poorly fitted or top-dose-only effect, or effect the other way, or a change in a side signal; inactive = no such curve, though single readings can be large or run the other way; the % refers to the signal ratio. Potencies of inconclusive entries are doubtful fits and often do not repeat. “Side channel” marks fits to a control or component signal instead of the main read-out.

Target: Muscleblind-like protein 1 (Homo sapiens) (UniProt Q9NR56)
Test: qHTS Assay for Inhibitors of MBNL1-poly(CUG) RNA binding
Settings: TR-FRET MBNL1-His/biotin-(CUG)12 binding, 665/545 ratio; activity change, negative = inhibition: at 57.5 µM (top of the series)
Summary of the method: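 Compound titration spanned 92 nM–58 uM against the MBNL1-His/biotin-(CUG)12 complex. After 60 min at room temperature with 5 nM streptavidin-XL665 and 0.055 ng/ul terbium anti-His, ratiometric 665/545 nm emission (Ex 340 nm) normalized to controls.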
% is set by controls: 0 for no effect and ±100 for the full control effect; potency is the fitted concentration of half-maximal effect; tags give direction and shape of the fitted curve or compound fluorescence and quenching.

UniProt Q9NR56, sequence (Q9NR56 whole entry, looked up): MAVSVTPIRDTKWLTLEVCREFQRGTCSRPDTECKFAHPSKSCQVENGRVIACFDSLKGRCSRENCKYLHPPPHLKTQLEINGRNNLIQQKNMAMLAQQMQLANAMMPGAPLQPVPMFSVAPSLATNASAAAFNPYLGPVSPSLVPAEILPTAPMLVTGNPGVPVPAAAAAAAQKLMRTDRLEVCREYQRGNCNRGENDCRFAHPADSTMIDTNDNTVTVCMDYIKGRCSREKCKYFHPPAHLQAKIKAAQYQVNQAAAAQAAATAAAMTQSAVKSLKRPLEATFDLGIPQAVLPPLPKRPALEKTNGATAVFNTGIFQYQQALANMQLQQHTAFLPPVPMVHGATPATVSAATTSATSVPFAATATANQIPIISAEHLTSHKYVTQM

SMILES	Potency	activity change, negative = inhibition
CCCn1c2ccc(C)cc2c2nnc(SCCN3CCOCC3)nc21	inconclusive: 14.1 µM [quencher, side channel, partial curve]	
CCCCN(CC)CCCNC(=O)c1cc2cc3ccc(OC)cc3nc2o1	inconclusive: 12.6 µM [quencher, side channel, partial curve]	
COc1ccccc1S(=O)(=O)N1CCN(S(=O)(=O)c2ccccc2C#N)CC1		inactive: 2.3%
CC(C)(C)C1CCc2c(sc(NC(=O)c3cccs3)c2C(N)=O)C1 (stereo not given)	inconclusive: 50.1 µM [inhibitor, single point]	
O=C(CN1c2ccccc2S(=O)(=O)c2ccccc21)NCc1ccccc1	inconclusive: 39.8 µM [fluorescent, single point]	
COC(=O)c1sc2nc3c(cc2c1N)CCCC3	inconclusive: 20 µM [quencher, side channel, partial curve]	
COc1cc(OC)cc(C(=O)NNC(=O)c2ccccn2)c1		inactive: 30.6%
COc1cccc(NC(=O)c2ccc(-c3ccc([N+](=O)[O-])cc3)o2)c1	inconclusive: 8.91 µM [quencher, side channel, partial curve]	
Cc1ccc(Cl)c(Nc2ccccc2C(=O)O)c1Cl	inconclusive: 0.126 µM [inhibitor, full curve, poor fit]	
N#Cc1cc([N+](=O)[O-])ccc1NC(=O)COC(=O)CC1CCCC1	inconclusive: 22.4 µM [quencher, side channel, partial curve]	
CS(=O)(=O)N(CC(=O)Nc1ccc2c(c1)OCCO2)Cc1ccccc1	inconclusive: 39.8 µM [quencher, side channel, single point]	
Cc1ccccc1N=Cc1cccc(O)c1O		inactive: 4.68%
CCN(C)c1ccc(/C=N\n2nnnc2N)cc1	inconclusive: 12.6 µM [quencher, side channel, partial curve]	
COc1ccc(C2(CNC(=O)Cc3ccc(OC)c(OC)c3)CCCC2)cc1	inconclusive: 5.01 µM [inhibitor, single point]	
CC(=O)NC(Cc1cc(C)ccc1C)C(=O)N1CCN(C(=O)c2ccc([N+](=O)[O-])cc2)CC1 (stereo not given)	inconclusive: 3.55 µM [quencher, side channel, full curve, poor fit]	
O=C(Oc1cccnc1)c1ccc([N+](=O)[O-])cc1Cl	inconclusive: 3.55 µM [quencher, side channel, full curve]	
O=[N+]([O-])c1ccccc1/C=N/n1c(COc2ccccc2)n[nH]c1=S	inconclusive: 15.8 µM [quencher, side channel, partial curve]	
Cn1nc([N+](=O)[O-])nc1Oc1ccc2ccccc2c1	inconclusive: 3.16 µM [quencher, side channel, full curve]	
O=[N+]([O-])c1ccc(C[n+]2ccc(Cc3ccccc3)cc2)cc1	inconclusive: 10 µM [quencher, side channel, partial curve]	
O=C(NCCN1CCOCC1)c1cnn2c(-c3ccccc3)cc(-c3ccccc3)nc12	inconclusive: 12.6 µM [quencher, partial curve]	

SMILES	Potency	activity change, negative = inhibition
Nc1cc2ccccc2oc1=O	inconclusive: 22.4 µM [quencher, side channel, single point]	
COc1ccc(S(=O)(=O)/N=C2\C=C(NS(=O)(=O)c3ccccc3)C(=O)c3ccccc32)cc1	inconclusive: 28.2 µM [quencher, side channel, partial curve]	
O=C(c1ccc([N+](=O)[O-])cc1)N1CCN(C(=O)c2ccco2)CC1	inconclusive: 15.8 µM [quencher, side channel, partial curve]	
Cc1noc(C)c1S(=O)(=O)N1CCCC1C(=O)O (stereo not given)		inactive: -3.81%
O=C(CCC(=O)N(CC(=O)NC1CCCCC1)CC1CCCO1)Nc1nccs1 (stereo not given)		inactive: 1.08%
CC1Cc2cc(/C(O)=C3/C(=O)C(=O)N(CCN4CCOCC4)C3c3cccc(Cl)c3)ccc2O1 (stereo not given)	inconclusive: 15.8 µM [quencher, side channel, single point]	
Cc1ccc2sc(N(CCN(C)C)C(=O)/C=C/c3cccs3)nc2c1C		inactive: -2.08%
CN(C)/C=C/C(=O)c1ccc(Cl)c([N+](=O)[O-])c1	inconclusive: 28.2 µM [quencher, side channel, partial curve]	
O=C(O)C1Cc2[nH]cnc2C(c2cccc([N+](=O)[O-])c2)N1 (stereo not given)	inconclusive: 20 µM [quencher, side channel, partial curve]	
O=C1c2ccccc2C(=O)C1c1ccccc1F	inconclusive: 31.6 µM [quencher, side channel, single point]	
CC(=C\c1ccccc1)/C=C1/SC(=S)N(CCC(=O)O)C1=O		inactive: 9.93%
COC(=O)c1cc(CNC(=O)CCCSc2ccccc2)ccc1OC		inactive: -7.86%
COc1ccc(NC(=O)NC(C(F)(F)F)C(F)(F)F)cc1	active: 31.6 µM	
CC(C)CC(OC(=O)c1nsc(Cl)c1Cl)C(=O)NCc1cccs1 (stereo not given)	inconclusive: 50.1 µM [inhibitor, single point]	
O=C1c2cccnc2C(=O)N1Cc1ccc(Cl)cc1	inconclusive: 15.8 µM [quencher, side channel, partial curve]	
O=C(NCCCCc1ccccc1)C1CC(c2cccc([N+](=O)[O-])c2)=NO1 (stereo not given)	inconclusive: 31.6 µM [quencher, side channel, single point]	
COc1ccc(C)cc1Nc1nc(-c2ccccc2O)nc2ccccc12		inactive: 20.7%
Cc1ccc(C(=O)N/C(=C\c2ccccc2)C(=O)NCc2ccncc2)cc1	inconclusive: 17.8 µM [quencher, side channel, partial curve]	
O=C(CSc1ncc(-c2ccccc2)nn1)NCc1ccco1	inconclusive: 31.6 µM [quencher, side channel, partial curve]	
CCN(c1ccccc1)c1cc(C)nc2nc(C)nn12	inconclusive: 8.91 µM [fluorescent, side channel, partial curve]	
